# Test results reported in publication PMC4336329 (PLoS ONE, 2015).
# Hit rate of the full screen: of about 310,000 compounds, about 14,000 (4.5%) showed an effect of 50% or more. The effect is printed as a negative number. The list shows a part of the results.
# Molecular target: human ether-à-go-go-related gene (hERG) potassium channel (human, UniProt Q12809)
# Assay: primary screen, population patch clamp on CHO cells stably expressing hERG
# 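Further: peak tail current of the secondary pulse compared with the same well before compound.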
# Sequence of human ether-à-go-go-related gene (hERG) potassium channel (Q12809 whole entry, looked up): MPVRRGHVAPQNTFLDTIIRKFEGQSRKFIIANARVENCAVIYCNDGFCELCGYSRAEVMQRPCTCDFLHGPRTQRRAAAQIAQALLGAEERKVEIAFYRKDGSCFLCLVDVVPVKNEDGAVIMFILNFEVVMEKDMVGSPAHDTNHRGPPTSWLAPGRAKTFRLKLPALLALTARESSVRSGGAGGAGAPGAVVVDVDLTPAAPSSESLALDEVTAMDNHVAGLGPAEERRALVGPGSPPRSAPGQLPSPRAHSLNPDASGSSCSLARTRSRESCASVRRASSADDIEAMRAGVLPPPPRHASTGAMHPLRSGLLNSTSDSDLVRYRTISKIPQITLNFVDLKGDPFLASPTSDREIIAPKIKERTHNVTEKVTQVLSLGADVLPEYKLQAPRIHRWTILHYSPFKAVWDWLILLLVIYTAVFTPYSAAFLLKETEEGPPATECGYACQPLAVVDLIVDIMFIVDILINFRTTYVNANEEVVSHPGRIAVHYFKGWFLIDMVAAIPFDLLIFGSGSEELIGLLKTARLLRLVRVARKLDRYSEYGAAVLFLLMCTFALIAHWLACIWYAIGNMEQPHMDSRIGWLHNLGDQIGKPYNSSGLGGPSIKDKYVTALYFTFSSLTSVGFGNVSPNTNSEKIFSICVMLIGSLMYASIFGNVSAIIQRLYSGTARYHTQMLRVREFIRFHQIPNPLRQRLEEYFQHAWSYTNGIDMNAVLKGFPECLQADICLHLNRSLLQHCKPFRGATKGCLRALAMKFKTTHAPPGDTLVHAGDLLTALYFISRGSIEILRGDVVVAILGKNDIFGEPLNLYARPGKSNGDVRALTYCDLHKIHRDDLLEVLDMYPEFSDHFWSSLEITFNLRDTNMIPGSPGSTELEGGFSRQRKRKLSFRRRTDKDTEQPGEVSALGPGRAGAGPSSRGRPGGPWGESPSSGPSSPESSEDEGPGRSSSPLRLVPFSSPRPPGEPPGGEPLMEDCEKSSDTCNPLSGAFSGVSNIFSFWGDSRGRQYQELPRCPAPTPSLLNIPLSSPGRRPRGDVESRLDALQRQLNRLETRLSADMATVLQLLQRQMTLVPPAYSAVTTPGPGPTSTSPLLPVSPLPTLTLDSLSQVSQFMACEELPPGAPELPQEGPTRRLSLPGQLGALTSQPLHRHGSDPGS
row,SMILES,"hERG current change (%, negative = inhibition) at 10uM [%]"
1,O=C(CN1CCC(NC(=O)c2ccccc2Cl)CC1)NCc1ccccc1,-20.4
2,CCn1cc(C(=O)O)c(=O)c2cc(F)c(N3CCN(C(=S)NC(=O)c4c(OC)cccc4OC)CC3)cc21,12
3,NNC(=O)/C(=C/c1cccs1)NC(=O)c1ccccc1Cl,2.33
4,Cc1cccc(C(=O)NCc2nnc(SC(C)C(=O)Nc3nnc(C)s3)n2C)c1 (stereo not drawn),19.7
5,CCN1CCN(CC(=O)Nc2nc3ccc(OC)cc3s2)CC1.O=C(O)C(=O)O,-30.8
6,O=C(O)[C@H](Cc1ccccc1)N1C(=O)c2ccncc2C1=O,19.3
7,O=C1OC(Nc2nccs2)c2ccccc21 (stereo not drawn),13.3
8,CCOc1cc(NS(=O)(=O)c2ccc(NC(C)=O)cc2)c(OCC)cc1NC(=O)c1cccs1,6.31
9,CN(Cc1ccc(F)cc1)C(=O)C(c1ccccc1)c1ccccc1,-6.18
10,COc1cc(C(=O)Nc2oc(-c3ccccc3)c(-c3ccccc3)c2C#N)cc(OC)c1OC,-20.9
11,C#CCOCCOCCOCCNc1nc(N2CCN(C(=O)CCCCCCCCCCNC(=O)[C@@H](CCSC)n3cc(CCO)nn3)CC2)nc(N2CCN(C(=O)CCCCCCCCCCNC(=O)[C@H]([C@@H](C)CC)n3cc(CCCCN=C(N)N)nn3)CC2)n1,4.27
12,Cc1cc(=O)oc2ccc(OCC(=O)N(Cc3ccc(F)cc3)Cc3ccco3)cc12,-58.8
13,O=c1c([N+](=O)[O-])c(N2CCCCC2)c2ccccc2n1-c1ccccc1,11.7
14,COc1cccc(C(=O)Nc2cccc(-c3nc4ncccc4o3)c2C)c1,-8.6
15,CCOC(=O)c1[nH]c2cc3c(cc2c1CCCN1C(=O)c2ccccc2C1=O)OCCO3,-8.32
16,CCCCC1=CC2=CC(=O)C(C)(OC(=O)CC)C(=O)C2=CO1 (stereo not drawn),8.53
17,COc1ccc(CC(=O)N/N=C(\C)CC(=O)Nc2cccc(F)c2)cc1,12.2
18,O=C(CCl)N1CCCC1c1ccc2c(c1)OCCO2 (stereo not drawn),18.7
19,CCc1noc(C)c1C(=O)NNC(=O)COc1ccccc1C,6.26
20,Cc1cc(C)cc(NC(=O)CSc2nc3c(oc4ccccc43)c(=O)n2-c2ccccc2)c1,-11.1
21,Cc1csc(SCC(=O)N2CCN(S(=O)(=O)c3ccc(Cl)cc3)CC2)n1,-20.9

row,SMILES,"hERG current change (%, negative = inhibition) at 10uM [%]"
1,CN1CC2(C)OC(=O)C(Cl)=C2CC1c1ccccc1 (stereo not drawn),11.3
2,Cc1cc(-c2ccc(Cl)cc2)c2cnn(C(C)C)c2n1,19.5
3,CC(C)C(O)(C#CCN1CCCCC1)c1ccccc1.Cl (stereo not drawn),-15.7
4,O=C1OCCN1P(=O)(c1ccccc1)c1ccccc1,10.4
5,C=CCOc1ccc(C2N3CC4(CC)CN2CC(CC)(C3)C4=O)cc1 (stereo not drawn),-18.3
6,CN(C)S(=O)(=O)c1cccc(NC(=O)c2ccc3c(c2)S(=O)(=O)N=C2CCCCCN23)c1,19.4
7,CCOc1c(C(N)=O)cc([N+](=O)[O-])cc1[N+](=O)[O-],3.7
8,Cc1cc(C)nc(NS(=O)(=O)c2ccc(NC(=O)CN3C(=O)S/C(=C\c4ccccc4)C3=O)cc2)n1,2.15
9,CC(=O)Nc1ccccc1P(=O)(c1ccccc1)c1ccccc1OC(C)=O (stereo not drawn),13.4
10,COc1ccc(C(=O)N2CCN(C(=O)c3cc(OC)c(OC)c(OC)c3)CC2)cc1,-17.4
11,Cc1ccc(C(=O)n2c3ccccc3c3ccccc32)cc1,15.9
12,CCc1ccc2[nH]c(=O)c(CN(CCN(C)C)C(=O)Nc3ccccc3OC)cc2c1,-64.7
13,COc1ccc2[nH]c(C(=O)O)c(CCN3C(=O)c4cccc([N+](=O)[O-])c4C3=O)c2c1,15.7
14,Cc1cccc(C)c1NC(=O)C1CCCN1C(=O)OC(C)(C)C (stereo not drawn),18.5
15,O=C(NCc1ccc(F)cc1)c1cccc2c1C(=O)c1ccc(N3CCOCC3)cc1S2(=O)=O,-14.8
16,Cc1cccc(C(=O)NN(C)c2nc(-c3ccccc3)nnc2C(F)(F)F)c1,-5.04
17,Cl.N=c1n(CCN2CCCC2)c2ccccc2n1CC(O)c1ccc(Cl)c(Cl)c1 (stereo not drawn),-91.4
18,Cn1c(=O)c2c(nc(NCCc3ccccc3)n2Cc2ccccc2)n(C)c1=O,7.52
19,O=C(Oc1ccc2ccccc2c1)c1cncc(Br)c1,-11.6
20,COc1ccccc1-c1cc(C(=O)Nc2ccc(F)cc2F)no1,2
21,COc1ccc(-c2noc(CNC(=O)c3ccc4c(c3)OCO4)n2)cc1,-21.4

row,SMILES,"hERG current change (%, negative = inhibition) at 10uM [%]"
1,O=C(CC1CCCCC1)NCc1cn2ccsc2n1,15
2,CCc1nnc(NC(=O)CSc2nnc(Cc3cccn3C)n2CCOC)s1,8.01
3,O=C(NCC(c1cccs1)N1CCOCC1)c1ccc([N+](=O)[O-])cc1 (stereo not drawn),-13.7
4,O=C(NCC1CCCN1S(=O)(=O)c1cccs1)C(=O)Nc1cccc(F)c1 (stereo not drawn),-15.2
5,CCOc1cc(/C=N/NC(=O)c2ccncc2)ccc1OC(=O)c1ccc([N+](=O)[O-])cc1,-15.7
6,Cc1ccc(NC(=S)NC(=O)c2ccc(Br)o2)c(C)c1,16.2
7,CCCCn1c(N)c(N(CC(C)C)C(=O)C2CCN(C(=O)c3ccc(Cl)cc3)CC2)c(=O)[nH]c1=O,2.37
8,COc1ccc(Cc2nc(C(=O)Nc3ccc(F)cc3)cs2)cc1,1.39
9,COc1ccccc1NC(=O)C(C)OC(=O)CCCc1c[nH]c2ccccc12 (stereo not drawn),-10.2
10,O=C(CCC1CCCC1)N[C@@H](Cc1ccc(O)cc1)C(=O)O,28.8
11,N#Cc1ccc(OCC(=O)N2CCN(c3ccc(C(F)(F)F)cn3)CC2)cc1,-54.7
12,CC(=O)N1CC(C)Sc2ccc(S(=O)(=O)N3CCCCC3)cc21 (stereo not drawn),-5.32
13,O=C(CO/N=C/c1ccccc1OC(F)F)NCc1cccs1,-12.9
14,CCOC(=O)c1sc2nc(C3CC3)cc(-c3ccc(OC)cc3)c2c1N,10.8
15,O=C(NCCCc1ccccc1)c1cc(COc2c(F)cccc2F)on1,-6.23
16,CC1CCCN(CC(=O)Nc2ccc(S(=O)(=O)NC3CCCCC3)cc2)C1 (stereo not drawn),-20.5
17,CC(C)Sc1nc2ccc(Br)cc2[nH]1,-12.2
18,O=C(C1CCCN(S(=O)(=O)c2cnc[nH]2)C1)N1CC(=O)N(CCc2ccccc2)C(=O)C1 (stereo not drawn),2.78
19,O=C(CSc1ccc(-c2ccc3c(c2)OCO3)nn1)Nc1nccs1,12.2
20,O=C(CN1CCN(c2ccccc2)CC1)Nc1ccc(-n2cnnn2)cc1,-2.52
21,O=C(Nc1ccc(N2CCOCC2)cc1)c1ccc(Cl)nc1,-0.522

row,SMILES,"hERG current change (%, negative = inhibition) at 10uM [%]"
1,COc1ccc(N(CC(=O)N/N=C/c2ccc(OC)cc2OC)S(=O)(=O)c2ccccc2)cc1,22.2
2,Cc1ccc(OCCn2c(=S)[nH]c3c(N)ncnc32)cc1,-3.01
3,CCOc1cc(N2CCOCC2)c(OCC)cc1NC(=O)CN1CCc2ccccc2C1,2.76
4,Cc1cc2c3c([nH]c2cc1S(=O)(=O)N1CCC2(CC1)OCCO2)CC(C)(C)CC3=O,-1.27
5,O=C(O)C(Cl)(Cl)Cl,-8.67
6,Cn1c(CC(=O)Nc2ccccc2)n[nH]c1=S,24.9
7,CCn1c(SCC(=O)Nc2ccccc2F)nnc1-c1cnccn1,-34.9
8,CCCOc1ccc(C(F)(F)F)cc1NC(=O)C1CC(=O)N(Cc2ccco2)C1 (stereo not drawn),-48.4
9,CCOC(=O)C1CCN(CCC(=O)Nc2ccccc2Cl)CC1.Cl,-19.3
10,CN1CCN(CCCNC(=O)Cn2nc(-c3ccccc3)ccc2=O)CC1,14.1
11,O=S(=O)(c1ccc(Br)cc1)N1CCCN(Cc2ccccc2F)CC1,-21.4
12,CCc1cc(=O)oc2cc(OCC(=O)N(CC)CC)c(Cl)cc12,8.27
13,C[C@@H](C(=O)Nc1nc2ccc(F)cc2s1)N1C(=O)C2CC=CCC2C1=O (stereo partly drawn),-13.9
14,Cc1cc(NCCCn2ccnc2)n2ncc(-c3ccc(Cl)cc3)c2n1,-68
15,COc1cc(C(=O)O)cc(OC)c1OCc1cc(C(=O)O)oc1C,10.2
16,CCCCn1c(N)c(N(Cc2ccccc2OC)C(=O)COc2ccccc2C#N)c(=O)[nH]c1=O,6.53
17,O=S(=O)(c1ccc2nnn(O)c2c1)N1CCCCC1,3.44
18,CC(=O)N(CN1C(=O)c2ccccc2C1=O)c1cccc(C)c1,4.43
19,Cc1nc2c(-c3ccc(F)cc3)c(C)nn2c(C)c1CCC(=O)N1CCC(Cc2ccccc2)CC1,-21.2
20,O=S(=O)(c1ccccc1F)N1CCc2ccccc2C1,14.5
21,O=C(/C=N/NC(=O)c1ccccc1Br)c1ccccc1,5.03
